Results taken from publication PMC7819943, “Rice protein-binding microarrays: a tool to detect cis-acting elements near promoter regions in rice”.
This is one part of the list.

Target: T1, OsWOX13 (Oryza sativa, UniProt Q5QMM3 1-267)
T1 sequence: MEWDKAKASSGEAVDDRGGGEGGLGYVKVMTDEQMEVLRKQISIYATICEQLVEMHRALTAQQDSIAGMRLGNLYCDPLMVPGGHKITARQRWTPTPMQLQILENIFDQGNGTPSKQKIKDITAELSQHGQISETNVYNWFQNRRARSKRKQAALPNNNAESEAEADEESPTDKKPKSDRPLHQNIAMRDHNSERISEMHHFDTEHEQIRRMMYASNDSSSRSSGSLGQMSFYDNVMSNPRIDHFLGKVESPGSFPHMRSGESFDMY
Experiment: protein-binding microarray (RPBM); PBS, 2% BSA, 51.3 ng/ul salmon testes DNA, 50 uM zinc acetate, 200 nM TF, 25 C, 1 h; high values mean tight binding
Settings: protein: recombinant; tags: N-terminal polyhistidine and DsRed monomer fusion (pET32a); label: CyDye5-dUTP incorporated in the synthesized complementary strand; 3' TTTTT single-stranded linker to array surface; dsDNA, one strand shown
Outline: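 Polyhistidine-tagged DsRed fusions of transcription factors, joined at the N-terminus, were expressed in E. coli BL21-CodonPlus and isolated on Ni–NTA. They were incubated at 200 nM for 1 h at 25 °C on a custom Agilent array, double-stranded and BSA-blocked, in PBS with 2% BSA, salmon testes DNA and 50 µM zinc acetate. The binding signal is per-feature fluorescence intensity (arbitrary units) read on an Axon 4000B scanner after washing.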

Question: How did the binding signal turn out when “TATGATTTATAAGCCAGTAAATTTAATGTCCTAAGTTTAGCGGAGTCACCTAGTGCAG” was run?
Answer: 26000 fluorescence intensity (a.u.)

Question: How did the binding signal turn out when “CAAATAGCAAAGATTAATTAGTATAGTATATTTGAGGTTGCGGAGTCACCTAGTGCAG” was run?
Answer: 4840 fluorescence intensity (a.u.)

Question: “GTTAGTCATGTGTTAATTTATATATCAATTTACGTGCGGGCGGAGTCACCTAGTGCAG” was tested. Which binding signal did it give?
Answer: 17600 fluorescence intensity (a.u.)

Question: Which binding signal does the source give for “ATAATTGTGAGGAGAACCACAGATTGTCCTGATTTTCACACGGAGTCACCTAGTGCAG” here?
Answer: 3270 fluorescence intensity (a.u.)

Question: For “ACCAATTTAATTTCTGTAGCTTGATTTCCTCTTTGGCACACGGAGTCACCTAGTGCAG”, which binding signal is on record?
Answer: 20400 fluorescence intensity (a.u.)

Question: For “AGACTGTGATGGATAGAGACCACAATATTATCCATGCATACGGAGTCACCTAGTGCAG”, which binding signal is on record?
Answer: 7310 fluorescence intensity (a.u.)

Question: For “CACTCTTGCATTTCTTTGATTGCAAATTTCCAAGGCAGAACGGAGTCACCTAGTGCAG”, which binding signal is on record?
Answer: 5250 fluorescence intensity (a.u.)

Question: Which binding signal does the source give for “GATTGTACTTGATTTGCATTATGCAAAACATCAATAGCCCCGGAGTCACCTAGTGCAG” here?
Answer: 8340 fluorescence intensity (a.u.)

Question: “GTTGATGATAATAAGAAAACAATTACCAGTACGCAGTACGCGGAGTCACCTAGTGCAG” was tested. Which binding signal did it give?
Answer: 5850 fluorescence intensity (a.u.)

Question: For “ATGAAGAAACTGTTGGTGATTTGACAAGTAGGCTTGGTTCCGGAGTCACCTAGTGCAG”, which binding signal is on record?
Answer: 6530 fluorescence intensity (a.u.)

Question: For “TGCTTAAATTTTAAACCTCTGAATTAACAGTATGTAATACCGGAGTCACCTAGTGCAG”, which binding signal is on record?
Answer: 3510 fluorescence intensity (a.u.)

Question: Which binding signal does the source give for “CCCGCTTGAATGGATGGCAATCAACACAAGGAACAGACCGCGGAGTCACCTAGTGCAG” here?
Answer: 13700 fluorescence intensity (a.u.)

Question: With “TGTATGATTTGAATTGAGTGAAGAGTGACCGATCCGAGCTCGGAGTCACCTAGTGCAG” as the sequence, how does the binding signal read?
Answer: 3700 fluorescence intensity (a.u.)

Question: “TGCCAAATTAATTTGTAACATATATCTTGGCAAGAAAATGCGGAGTCACCTAGTGCAG” was tested. Which binding signal did it give?
Answer: 27800 fluorescence intensity (a.u.)

Question: Which binding signal does the source give for “AGTTTGTAATAATTAAAACCCAATCAATGATACGTCAATACGGAGTCACCTAGTGCAG” here?
Answer: 10300 fluorescence intensity (a.u.)

Question: Which binding signal does the source give for “CGATAACTGGAGATAGAGGAGCGACAAGGCTTCCGGTGCTCGGAGTCACCTAGTGCAG” here?
Answer: 13000 fluorescence intensity (a.u.)

Question: “TTACATCAATTAGCTCACACTTCTGCAACACAATATTAGCCGGAGTCACCTAGTGCAG” was tested. Which binding signal did it give?
Answer: 6360 fluorescence intensity (a.u.)

Question: With “CACTAATTAAGGGTGTCAAAGTGGACTTATTATTTTATCGCGGAGTCACCTAGTGCAG” as the sequence, how does the binding signal read?
Answer: 29500 fluorescence intensity (a.u.)

Question: “ACTAATTTAGTATTATAAATATTACTATATTTGTTTATAACGGAGTCACCTAGTGCAG” was tested. Which binding signal did it give?
Answer: 10200 fluorescence intensity (a.u.)

Question: With “GTTGGTGATAGACGATATAATTACGATCACCGAAAAGTGGCGGAGTCACCTAGTGCAG” as the sequence, how does the binding signal read?
Answer: 31900 fluorescence intensity (a.u.)

Question: “GAGATTTTGTTATAAAGAGTTAATTATAACAAATCCAATGCGGAGTCACCTAGTGCAG” was tested. Which binding signal did it give?
Answer: 4620 fluorescence intensity (a.u.)

Question: How did the binding signal turn out when “GATAAGATTATTTATGATATGATGATCACTTCAATATCTGCGGAGTCACCTAGTGCAG” was run?
Answer: 9980 fluorescence intensity (a.u.)

Question: For “ATATTCAATCTTAAATTTATAGTTGTGTGAGAAATTTTGTCGGAGTCACCTAGTGCAG”, which binding signal is on record?
Answer: 20800 fluorescence intensity (a.u.)

Question: For “ATTGATTTTCTAGACCTGCCACTGATTATACATGCTCAGTCGGAGTCACCTAGTGCAG”, which binding signal is on record?
Answer: 26900 fluorescence intensity (a.u.)

Question: “GACTAATTTATGCATATGAATTCAGTTGCATTTCTGTGTTCGGAGTCACCTAGTGCAG” was tested. Which binding signal did it give?
Answer: 36300 fluorescence intensity (a.u.)

Question: Which binding signal does the source give for “ATTTTAAATTTTAGTTATTTCTAAATTGTATTTCTATATGCGGAGTCACCTAGTGCAG” here?
Answer: 9830 fluorescence intensity (a.u.)

Question: How did the binding signal turn out when “TCGAATAGATTTAGTTCCTTACTATCTATTTATAAGCGCCCGGAGTCACCTAGTGCAG” was run?
Answer: 4140 fluorescence intensity (a.u.)

Question: For “CTGTAGATTCTTTTAATTTTCATCATTGGATAATTCAACCCGGAGTCACCTAGTGCAG”, which binding signal is on record?
Answer: 4320 fluorescence intensity (a.u.)

Question: For “CGATACTCCTAACACAAATTAGACAATCTACTCCGGTCAACGGAGTCACCTAGTGCAG”, which binding signal is on record?
Answer: 4520 fluorescence intensity (a.u.)

Question: For “ACTCTTTTATTAGTGTGATTACTAGAAAATAATTATACTTCGGAGTCACCTAGTGCAG”, which binding signal is on record?
Answer: 5230 fluorescence intensity (a.u.)

Question: How did the binding signal turn out when “CGGAAATGGAAATATATATATAGTAGTACTTCTGATCACACGGAGTCACCTAGTGCAG” was run?
Answer: 3250 fluorescence intensity (a.u.)

Question: With “GTGGGATTGTGATTTTGTTTGTAACTAGTTATGTATCCAACGGAGTCACCTAGTGCAG” as the sequence, how does the binding signal read?
Answer: 12600 fluorescence intensity (a.u.)

Question: “ACTGGTAATTAATTTGTTGATACACTCAGTTTGGTAATGGCGGAGTCACCTAGTGCAG” was tested. Which binding signal did it give?
Answer: 47500 fluorescence intensity (a.u.)

Question: Which binding signal does the source give for “AACTAATTGCACAGTTTGCATGTAAATCACGACACGAATACGGAGTCACCTAGTGCAG” here?
Answer: 20200 fluorescence intensity (a.u.)

Question: How did the binding signal turn out when “AAGAGAACAAAATTTGATTACACAACGCACACTGTCAAAACGGAGTCACCTAGTGCAG” was run?
Answer: 3180 fluorescence intensity (a.u.)

Question: For “AGAATGATTTAATGTATTGCCATATGAGTGAAATGGGAGCCGGAGTCACCTAGTGCAG”, which binding signal is on record?
Answer: 29600 fluorescence intensity (a.u.)

Question: With “CTTAATTAGTCTCAAAAGATTCGTCTCGCGGTTTCCACGCCGGAGTCACCTAGTGCAG” as the sequence, how does the binding signal read?
Answer: 20500 fluorescence intensity (a.u.)

Question: Which binding signal does the source give for “GTAGATGATTACAAACATAGGGGAATAACAATGGGAACGTCGGAGTCACCTAGTGCAG” here?
Answer: 15000 fluorescence intensity (a.u.)

Question: “AATAATTGTATTAGTATATGTAGGAGCTTGACACCCATGGCGGAGTCACCTAGTGCAG” was tested. Which binding signal did it give?
Answer: 35700 fluorescence intensity (a.u.)

Question: How did the binding signal turn out when “CTAGCAGGTGATTATAAATCCAATTTTAAATCCATTTCGACGGAGTCACCTAGTGCAG” was run?
Answer: 8670 fluorescence intensity (a.u.)

Question: How did the binding signal turn out when “AAGATGAGTGATTAAGCATCAATTAAATCAAGACGACTAGCGGAGTCACCTAGTGCAG” was run?
Answer: 31700 fluorescence intensity (a.u.)

Question: How did the binding signal turn out when “CATATTGATGTTAATGAATCTAGAGATATATATCTATCTACGGAGTCACCTAGTGCAG” was run?
Answer: 3520 fluorescence intensity (a.u.)

Question: For “GTCGCGATCAGCTAATTAGCTTAGCTGCTAGCAGATGAATCGGAGTCACCTAGTGCAG”, which binding signal is on record?
Answer: 4760 fluorescence intensity (a.u.)

Question: Which binding signal does the source give for “ACTATTCAAATTTAAATTATCATAAACCACGTTAACTTACCGGAGTCACCTAGTGCAG” here?
Answer: 22700 fluorescence intensity (a.u.)

Question: For “GAGGAAAATAATTTGCACTATAGATTAATAATCAAAAGGCCGGAGTCACCTAGTGCAG”, which binding signal is on record?
Answer: 9470 fluorescence intensity (a.u.)

Question: For “AGAGATCACTAATTATTTACGCATCAATTCGTCATTTCTTCGGAGTCACCTAGTGCAG”, which binding signal is on record?
Answer: 8060 fluorescence intensity (a.u.)

Question: Which binding signal does the source give for “AGCTAGACAGAGACAGTAGACACACAGCGCGCGTCCGTTGCGGAGTCACCTAGTGCAG” here?
Answer: 6670 fluorescence intensity (a.u.)

Question: With “ACAGCCCAATCAAACAGCATCCGGATATTTCATCCGAACCCGGAGTCACCTAGTGCAG” as the sequence, how does the binding signal read?
Answer: 3650 fluorescence intensity (a.u.)

Question: With “TTAATTTGCAAATTAACCACATTCGAATTTCTCTCTCTCTCGGAGTCACCTAGTGCAG” as the sequence, how does the binding signal read?
Answer: 49600 fluorescence intensity (a.u.)

Question: With “CAAACATCCAATCTTCATATTTGATTATTTGTCTCACTTCCGGAGTCACCTAGTGCAG” as the sequence, how does the binding signal read?
Answer: 12400 fluorescence intensity (a.u.)

Question: For “TTATGATTTAAGTTGAAATTTTCATATTAAATAAGTGCTACGGAGTCACCTAGTGCAG”, which binding signal is on record?
Answer: 22600 fluorescence intensity (a.u.)

Question: With “TTATAATCAGAACCTGTGGCTGATTGAGCAGGATTTGACACGGAGTCACCTAGTGCAG” as the sequence, how does the binding signal read?
Answer: 7860 fluorescence intensity (a.u.)

Question: “CACCTTATTTATAATTTAGTTACTCTCCGGCGGTACCATCCGGAGTCACCTAGTGCAG” was tested. Which binding signal did it give?
Answer: 5930 fluorescence intensity (a.u.)

Question: With “TAATCATGTTAAATTGATGTTATTAGATTTATCATTAAACCGGAGTCACCTAGTGCAG” as the sequence, how does the binding signal read?
Answer: 14900 fluorescence intensity (a.u.)
